Results: the supplement of paper PMC3334620
Whole data set: some 33,000 sequences, median “E-score (-0.5 to 0.5)” near -0.041, cut for the highest 2% near 0.37. Some of the results follow.

target: T1, Ecm22 (UniProt Q05958); assay: PBM E-score (8-mer binding enrichment) (E-score (-0.5 to 0.5)); higher = stronger / more preferred TF binding; most listed sequences are background and not binding sites; conditions: protein concentration: 200 nM; construct: GST-full length
T1 sequence: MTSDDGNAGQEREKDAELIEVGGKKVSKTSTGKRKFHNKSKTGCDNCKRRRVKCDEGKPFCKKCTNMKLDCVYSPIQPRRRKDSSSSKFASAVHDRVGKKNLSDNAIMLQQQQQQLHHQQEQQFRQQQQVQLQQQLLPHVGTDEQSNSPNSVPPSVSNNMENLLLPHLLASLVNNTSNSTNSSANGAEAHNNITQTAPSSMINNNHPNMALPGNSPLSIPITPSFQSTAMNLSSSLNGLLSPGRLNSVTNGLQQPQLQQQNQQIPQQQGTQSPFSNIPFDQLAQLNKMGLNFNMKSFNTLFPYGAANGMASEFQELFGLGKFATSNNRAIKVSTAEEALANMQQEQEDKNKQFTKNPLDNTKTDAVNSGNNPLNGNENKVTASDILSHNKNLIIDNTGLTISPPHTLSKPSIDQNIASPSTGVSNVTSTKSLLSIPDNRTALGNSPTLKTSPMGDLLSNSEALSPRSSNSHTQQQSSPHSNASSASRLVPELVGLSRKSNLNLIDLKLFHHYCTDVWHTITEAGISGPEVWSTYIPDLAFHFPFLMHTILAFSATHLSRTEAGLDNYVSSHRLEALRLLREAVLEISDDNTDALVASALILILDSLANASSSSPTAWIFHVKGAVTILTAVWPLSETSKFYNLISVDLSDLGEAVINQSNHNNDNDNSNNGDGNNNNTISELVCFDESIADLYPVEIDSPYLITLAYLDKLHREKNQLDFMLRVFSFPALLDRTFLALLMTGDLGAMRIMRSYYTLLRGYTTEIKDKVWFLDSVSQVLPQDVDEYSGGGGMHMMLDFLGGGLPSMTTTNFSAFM
Outline: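 GST-tagged yeast TFs (full-length or DNA-binding domain) were made by PURExpress in vitro transcription/translation and applied at about 100-200 nM to universal all-10-mer Agilent arrays. The arrays were made double-stranded by primer extension, on fresh or once-stripped slides. Bound protein was detected with fluorescent anti-GST, and scans were normalised with masliner. Each ungapped eight-base word, pooled with its reverse complement, received an E-score (modified Wilcoxon-Mann-Whitney statistic) from the Universal PBM Analysis Suite.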

Row | Sequence | PBM E-score
1 | CCCTGAAA | -0.0815
2 | CCTGTAAA | -0.0785
3 | GATCGGGC | 0.00226
4 | CGCGAAGA | 0.183
5 | CCACGAGC | -0.0179
6 | ACTTTTAA | -0.0966
7 | AGTTTCCC | -0.0723
8 | ATGGCGTC | 0.0853
9 | CCATGTCG | 0.121
10 | AGCTTCCG | -0.00995
11 | AAACGTGC | 0.0668
12 | CGAATTAA | 0.316
13 | ACAAGCCC | -0.0755
14 | CCGGACCA | 0.0404
15 | AAGTATAT | 0.0727
16 | ACTTGCGA | 0.148
17 | ATCAGTAG | -0.141
18 | ATCCGACC | 0.145
19 | ACAGTTGA | -0.122
20 | CATGGACC | -0.192
21 | ACCCCATC | -0.155
22 | AATTACTG | -0.0409
23 | ACTGCGCA | 0.0888
24 | AGGTAAAG | 0.0636
25 | CCCATAAC | 0.0605

Row | Sequence | PBM E-score
26 | AGTTTATA | 0.15
27 | CCCAGGGA | -0.351
28 | CGAAATCC | 0.0928
29 | TGGAGTAA | -0.00482
30 | CGCTAACA | 0.0557
31 | ATATTTTA | 0.0478
32 | TCTTGCAA | -0.0169
33 | ACATATGC | 0.111
34 | CGAGTATA | 0.237
35 | AGACCGAC | 0.203
36 | GCCACCGA | -0.0865
37 | AGCACTGA | -0.164
38 | ACGTTATC | 0.0182
39 | ATCCTGAC | -0.0215
40 | AACAGCCT | -0.271
41 | AGGAGGAT | -0.157
42 | AACCCACT | -0.0263
43 | GGGGGTGA | -0.256
44 | CACCGGGC | -0.27
45 | AAGCCTAC | -0.202
46 | ATCAATTC | -0.0714
47 | GTTAAAAA | 0.0597
48 | CCCGCTTC | -0.0903
49 | CCAGCGAG | 0.0176
50 | GCTTGTCC | 0.0168

Row | Sequence | PBM E-score
51 | ACCAGCCT | -0.0699
52 | CTTGGAAA | 0.104
53 | GTTGCGCA | -0.0414
54 | ATTCCGTC | -0.256
55 | AAGACCTT | -0.0798
56 | GTGTCCGA | 0.242
57 | TGTCCAAA | -0.0421
58 | GGCAGCCC | -0.121
59 | CCATGTCA | -0.236
60 | GAAGGCAC | -0.00275
61 | GGGGACAC | -0.224
62 | CTTAGTGC | -0.115
63 | CCTTGGAC | -0.0458
64 | AGCAAGCG | 0.131
65 | AGGATCGA | 0.168
66 | AGCCGGAG | -0.00796
67 | ACAGGCAT | -0.151
68 | CCTGAACC | -0.125
69 | GTATACAC | 0.236
70 | CGAAACGC | 0.0992
71 | AGTAGCGG | -0.0229
72 | GAATGCCA | -0.199
73 | ACTGTCGA | -0.0436
74 | GACGTCGA | 0.152
75 | ACAGACAG | -0.0953

Row | Sequence | PBM E-score
76 | ACCAGTGG | -0.174
77 | GGCCTAAA | -0.202
78 | ATCCTTTC | -0.175
79 | ACAGTGGT | 0.0263
80 | CCGATCTA | -0.0276
81 | GGCGGGGA | 0.191
82 | GCAACGCC | -0.0777
83 | ATATTAAG | 0.0746
84 | CACTGGTC | 0.0645
85 | AACGGCCA | 0.135
86 | AAAACTTT | -0.122
87 | AAATGACC | -0.11
88 | ACACGCGT | 0.0936
89 | GCGTCAAA | 0.0662
90 | CGGTTACC | 0.304
91 | AGTTGCTC | -0.13
92 | GCGTAGGA | -0.0388
93 | AGCCATCC | -0.238
94 | CTGAACAC | 0.0936
95 | AGCTGGGA | -0.167
96 | CACAGCCA | -0.0456
97 | AGGCCGTC | 0.0471
98 | GAGTACCC | 0.042
99 | CGCCCAGC | -0.00552
100 | CACGACCA | 0.0103

Row | Sequence | PBM E-score
101 | CTACCTGC | -0.202
102 | ATCCGAGA | 0.279
103 | AGGTATAG | -0.0117
104 | ACCTGTAG | -0.136
105 | CATCCCGG | -0.164
106 | ATGTGCCG | -0.0771
107 | GTGGCAGA | -0.176
108 | ATAAGAGG | 0.102
109 | ACAAGAAG | -0.0478
110 | CGAAATTA | 0.0197
111 | CCGCTTAC | 0.0978
112 | GAACATGA | -0.162
113 | TACAAACA | 0.108
114 | AACCCTGA | -0.203
115 | TTGCCAAA | 0.082
116 | CCCTCGCC | -0.0526
117 | CATGCCTA | -0.134
118 | GCAAGGGC | -0.266
119 | ATCGATTG | 0.0987
120 | AACGCCAG | 0.0327
121 | CACGCGCG | -0.0266
122 | CTTATGCC | -0.0616
123 | CCGGCACC | -0.0607
124 | CTATCGCA | 0.0959
125 | GCCTTGTA | -0.209

Row | Sequence | PBM E-score
126 | CGTAGGTA | 0.0163
127 | CCCAATCA | -0.24
128 | ATGTGACA | -0.0479
129 | CGCCAAAG | -0.297
130 | ATAGATTG | 0.0287
131 | GAGCCACA | -0.0887
132 | ACGACTGC | 0.308
133 | AAACTCAC | -0.039
134 | CTGTGCTA | -0.132
135 | AGAACTAG | -0.224
136 | TCGCGCGA | 0.151
137 | TAACGTTA | 0.0399
138 | ATTGATCC | -0.0658
139 | AGATCCAA | -0.0669
140 | CGAATACC | 0.143
141 | CAAGTGCG | -0.0245
142 | AGATCTCC | -0.121
143 | AGGCCGGG | -0.0729
144 | ATACCGGA | -0.0331
145 | CGCAGAAG | 0.00639
146 | GGGTCGAA | -0.0301
147 | ATATCATG | -0.0308
148 | CCTTCTAA | -0.195
149 | CGAATACA | 0.187
150 | CCTAGGGC | -0.246

Row | Sequence | PBM E-score
151 | ATGTGCAG | -0.234
152 | CATGAATG | -0.0686
153 | ATTATTAC | 0.129
154 | GCTGGCTA | -0.107
155 | CCAGCGGG | -0.235
156 | AAAACACG | 0.0336
157 | ATATGTAG | -0.256
158 | ATGCAGAA | -0.0632
159 | GCAGTAAA | -0.0139
160 | AGCTTAAC | 0.0691
161 | AGTTTTCC | 0.143
162 | CATACTTC | -0.128
163 | CTTCCTTC | -0.0503
164 | AGAAAGAT | -0.02
165 | TGCGGCAA | -0.186
166 | GTAACCAC | -0.0757
167 | AAGGTGTC | -0.0799
168 | ACGGTAGT | 0.0637
169 | CGCAGGAG | -0.122
170 | AATAGGGG | -0.11
171 | GCCCACAC | -0.273
172 | AAACGCTG | 0.0348
173 | ATTAGGGA | -0.14
174 | CTATGCTC | -0.211
175 | CTTTTACC | -0.0226

Row | Sequence | PBM E-score
176 | CTCTGGCA | -0.202
177 | AATCAGCC | -0.107
178 | TTCTTCAA | -0.138
179 | CTGTTGTC | -0.108
180 | TAAGATAA | -0.0986
181 | ATCTTGAA | -0.0726
182 | ACAGGGTC | -0.143
183 | AGGGTACA | -0.0565
184 | CGTCTTAA | 0.0348
185 | GTTTATGA | 0.13
186 | CGATGTGA | 0.123
187 | ATACCTGG | -0.25
188 | CAGTGAGA | -0.192
189 | CGCTTTTC | 0.152
190 | GACAAGAC | -0.0125
191 | TCCAAACA | -0.186
192 | AACGTTGT | 0.15
193 | CGAAGACG | 0.0817
194 | AGTCGGTC | 0.194
195 | AATGTTAC | 0.0907
196 | CGGTCTTA | -0.0511
197 | AGCTTCTC | 0.101
198 | GAACTTAC | 0.0627
199 | GGTGGCGA | 0.153
200 | CACATACC | -0.0698

Row | Sequence | PBM E-score
201 | CGGACAAA | 0.0646
202 | GTCACGAA | 0.0416
203 | CTGGACGA | -0.246
204 | AGCAAAAT | 0.0427
205 | CGTGGGCC | -0.165
206 | AAAACGGC | 0.154
207 | CGGAACAA | 0.168
208 | CCTACTAA | -0.119
209 | TGCGAGAA | 0.267
210 | CCGGTTCC | -0.0978
211 | ACTTATCG | 0.0244
212 | CGAGCCCG | 0.224
213 | CCTGGCAG | -0.123
214 | CCGTGGAA | -0.121
215 | ACTGCAAA | -0.129
216 | TATGCTGA | -0.203
217 | CCCTAACC | -0.264
218 | ACTCCTAC | -0.222
219 | AGACTCGG | -0.0981
